Measurements from PubChem BioAssay AID485281 (National Center for Advancing Translational Sciences (NCATS), 2010).
Where “and” joins values, the source holds several entries; their conditions need not be identical. Equal entries are not always repeated. Among all 350,000 compounds or so, about 260 (0.074%) were called active. Inconclusive results, whose numbers are uncertain, are shown with a selection of clear calls. Calls follow the shape of the dose curve; as a rule, active = well fitted inhibition curve with a large enough effect; inconclusive = small, poorly fitted or top-dose-only effect; inactive = no such curve, though single readings can be large or run the other way. Potencies beside an inconclusive call are fits to weak or partial responses and may not hold up.

The compounds below were run against Ferritin light chain (Equus caballus) (UniProt P02791) (assay: qHTS Assay for Identification of Novel General Anesthetics). Conditions: apoferritin/1-aminoanthracene competitive binding, fluorescence; series mostly up to 77.5 µM.
Sequence of UniProt P02791 (P02791 whole entry, looked up): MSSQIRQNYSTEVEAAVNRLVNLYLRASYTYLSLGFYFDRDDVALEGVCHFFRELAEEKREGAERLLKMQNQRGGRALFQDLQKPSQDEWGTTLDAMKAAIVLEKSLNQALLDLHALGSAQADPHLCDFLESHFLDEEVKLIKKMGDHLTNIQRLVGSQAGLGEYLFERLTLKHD
In short: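 Probe: 1-aminoanthracene (50% saturated, PBS). Protein: horse-spleen apoferritin, 10 uM. Incubation: 10 min, room temperature. Detection: 380 nm excitation, 535 nm emission. Analysis: normalized response, four-parameter Hill.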
Also: nearly all actives have a fitted effect of over 20% in size.
Potency is read from the fitted curve at half-maximal effect; tags tell the direction and shape of the fitted curve.

| Compound | Potency |
| --- | --- |
| Clc1ccccc1-c1nc2ccccc2c2nncn12 | inactive |
| CN(C(=O)c1ccc2c(c1)C(=O)N(CCC1=CCCCC1)C2=O)C1CCCCC1 | inconclusive: 2.82 µM [inhibitor, full curve, poor fit] |
| COc1cccc(C(C(=O)NC2CCCCC2)N(C(=O)c2ccco2)c2ccc(-n3cnnn3)c(C)c2)c1 (stereo not drawn) | inactive |
| COc1ccc(C)cc1N(C(=O)COc1ccccc1)c1nc2ccccc2s1 | inactive |
| N=c1n(Cc2ccc(Cl)cc2)c2ccccc2n1CC(O)c1ccco1 (stereo not drawn) | inconclusive: 25.1 µM [inhibitor, partial curve] |
| COc1ccc(C(C[N+](=O)[O-])c2c(-c3ccccc3)cc3ccccn23)cc1 (stereo not drawn) | inconclusive: 31.6 µM [inhibitor, partial curve] |
| OCCN(CCO)c1ncnc2c1sc1nc(N3CCOCC3)c3c(c12)CCCC3 | inconclusive: 28.2 µM [inhibitor, partial curve] |
| O=C(OCn1ncc(Br)c(Br)c1=O)c1c(F)cccc1F | inconclusive: 17.8 µM [inhibitor, partial curve] |
| CS(=O)(=O)Nc1ccccc1N=C(c1ccccc1)c1ccccc1 | inconclusive: 31.6 µM [inhibitor, single point] |
| Cc1ccc(NC(=O)CN(C)C2CCCCC2)cc1Br | inconclusive: 28.2 µM [inhibitor, partial curve] |
| CC(C)C(=O)NC(c1ccco1)c1c(O)ccc2ccccc12 (stereo not drawn) | inactive |
| COc1ccc2ccccc2c1CN1CCSCC1 | inactive |
| O=C(NC1=NCCS1)C1CC2CCC1C2 (stereo not drawn) | inconclusive: 50.1 µM [inhibitor, single point] |
| O=C(Cn1cnc2ccccc2c1=O)OCC(=O)c1ccc2c(c1)OCCO2 | active: 15.8 µM |
| COCCNC(=O)c1ccccc1NC(=O)c1nsc2ccccc12 | inactive |
| CN(C)/C=C/C(=O)c1cnc(-c2ccccc2)s1 | inconclusive: 22.4 µM [inhibitor, partial curve] |
| C=CCn1c(COc2ccccc2)nnc1SCc1ccc(C#N)cc1 | inactive |
| Cc1cccn2c(=O)c(/C=C(\C#N)C(=O)NCc3ccco3)c(N3CCOCC3)nc12 | inactive |
| Cc1cc2[nH]c(=O)c(=O)[nH]c2cc1S(=O)(=O)N1CCN(c2cccc(Cl)c2)CC1 | inconclusive: 8.91 µM [inhibitor, partial curve] and inconclusive: 25.1 µM [inhibitor, partial curve] |
| CC(=O)Nc1ncc(Cc2cccc(Cl)c2Cl)s1 | inconclusive: 3.98 µM [inhibitor, full curve, poor fit] |
| Cc1nn(-c2nc3ccccc3s2)c(N)c1-c1ccc(Cl)cc1 | inactive |
| Cc1ccc(-n2c(C)csc2=N)cc1 | inconclusive: 17.8 µM [inhibitor, partial curve] |
| CCCCCCC(=O)Nc1nc(C)c(-c2csc(Nc3cc(Cl)ccc3C)n2)s1 | inconclusive: 20 µM [inhibitor, partial curve] |

| Compound | Potency |
| --- | --- |
| COc1ccccc1CN1C(=O)c2ccncc2C1=O | inconclusive: 25.1 µM [inhibitor, partial curve] |
| COc1ccc2nc3c(cc2c1)c(NC(=O)C1CCCO1)nn3CC(C)C (stereo not drawn) | inactive |
| c1ccc(-c2cc3n(c2)CCc2ccccc2-3)cc1 | inactive |
| C=CCn1c(SCC(=O)NCc2ccco2)nc2ccccc2c1=O | inactive |
| CCCC(C)c1nnc(NC(=O)CS(=O)(=O)Cc2ccccc2)s1 (stereo not drawn) | inconclusive: 35.5 µM [inhibitor, partial curve] |
| COc1ccc(CCNc2ccc(C)cc2)cc1 | inconclusive: 31.6 µM [inhibitor, single point] |
| Cc1cccc(OC(=O)c2cccnc2)c1C | inconclusive: 31.6 µM [inhibitor, partial curve] |
| Cc1nc2cccnc2n1C1CCN(C(=O)Nc2ccc(Cl)cc2)CC1 | inactive |
| CCCOc1ccccc1-n1sc2c(c1=S)-c1cc(OC)cc3c1N(C(=O)C3=O)C2(C)C | inconclusive: 17.8 µM [inhibitor, partial curve] |
| Cc1nn(Cc2cccc(C(=O)NN)c2)c(C)c1Cl | inconclusive: 35.5 µM [inhibitor, partial curve] |
| Cc1ccc2c(c1)c1cccc3c1n2CCN3CCC(N)=O | inactive |
| Cc1cc(C)cc(NC(=O)C(Cc2ccccc2)NS(=O)(=O)c2ccc3c(c2)CCC(=O)N3)c1 (stereo not drawn) | inactive |
| Cc1nc2c3ccccc3nc(SCC(=O)c3ccc(Cl)cc3)n2n1 | inconclusive: 7.94 µM [inhibitor, single point] |
| COc1ccc(C(=O)Cn2nnc(-c3ccccc3NC(=O)C(F)(F)F)n2)cc1 | inconclusive: 11.2 µM [inhibitor, partial curve] |
| C/C(=N/NC(=O)c1ccc(Br)s1)c1cccnc1 | inconclusive: 22.4 µM [inhibitor, single point] |
| CCN1CCN(C(c2cccc(OC)c2)c2sc3nc(C)nn3c2O)CC1 (stereo not drawn) | inactive |
| CC(C)(c1ccccc1)c1ccc(OCC(O)CNC2CCN(Cc3ccccc3)CC2)cc1 (stereo not drawn) | inconclusive: 35.5 µM [inhibitor, partial curve] |
| O=C(CN1CCOCC1)NCCC12CC3CC(CC(C3)C1)C2 | inconclusive: 31.6 µM [inhibitor, partial curve] |
| COc1cccc(/C=N/NC(=O)CCCc2ccc(OC)c(C)c2)c1 | inconclusive: 10 µM [inhibitor, partial curve] |
| Cc1n[nH]c(C)c1S(=O)(=O)N1CCC(C(=O)N2CCn3c2nc2ccccc23)CC1 | inactive |
| COc1ccc(NC(=O)/C(Cl)=C(/Cl)S(=O)(=O)Cc2ccc(C)cc2)cn1 | inconclusive: 10 µM [inhibitor, full curve] |
| Brc1ccccc1-n1nnc(-c2ccnc3ccccc23)n1 | inconclusive: 11.2 µM [inhibitor, partial curve] |
| CCOc1ccc(-c2nc(CSc3nnc(C)s3)cs2)cc1OC | inconclusive: 50.1 µM [inhibitor, single point] |

| Compound | Potency |
| --- | --- |
| CCCCCCN(C(=O)CCCCCN1C(=O)NC(c2cccc([N+](=O)[O-])c2)C(C(=O)OCc2ccccc2)=C1C)C(C(=O)NCCCC)c1ccc(OCC(=O)OC)c(C(=O)OC)c1 (stereo not drawn) | inconclusive: 10 µM [inhibitor, partial curve] and inconclusive: 17.8 µM [inhibitor, partial curve] |
| COc1cc(NC(=O)CSc2nc3nc(C)c(Cc4ccccc4Cl)c(C)n3n2)cc(OC)c1 | inconclusive: 5.01 µM [inhibitor, partial curve] |
| COc1ccccc1N1CCN(C(=O)C2CCCN(S(=O)(=O)c3ccc4c(c3)CCCN4C(C)=O)C2)CC1 (stereo not drawn) | inconclusive: 31.6 µM [inhibitor, partial curve] |
| COc1cc(Cl)ccc1OCc1cc(C(=O)N(C)Cc2cccc3cnccc23)no1 | inconclusive: 15.8 µM [inhibitor, partial curve] |
| COc1cc(/C=C(/C(=O)c2cccs2)c2nc3ccccc3[nH]2)ccc1O | inconclusive: 31.6 µM [inhibitor, partial curve] |
| Cc1ccc(Cn2ccc(NC(=O)c3cc(C)on3)n2)cc1 | inconclusive: 28.2 µM [inhibitor, partial curve, poor fit] |
| CC(C)CCNC(=O)C1CCN(S(=O)(=O)c2ccc3c(c2)CC(C)N3C(=O)C2CC2)CC1 (stereo not drawn) | inconclusive: 17.8 µM [inhibitor, partial curve] |
| Cc1ccc(-c2cc(C(=O)N/N=C/c3c(C)nn(C)c3C)c3ccccc3n2)cc1C | inconclusive: 31.6 µM [inhibitor, partial curve] |
| C/C(=N\NC(=S)Nc1ccccc1C)c1ccc(O)cc1 | inconclusive: 39.8 µM [inhibitor, single point] |
| Cc1oc(-c2cccc(Cl)c2)nc1CN(C)C1CCOC1 (stereo not drawn) | inconclusive: 35.5 µM [inhibitor, single point] |
| O=C(CSc1nc(-c2cccc(F)c2)[nH]c1-c1ccccc1)Nc1ccc2c(c1)OCO2 | inactive |
| O=CNCC(=O)NC1CCCCCC1 | inconclusive: 31.6 µM [inhibitor, partial curve] |
| Cc1nc(SCc2ccc(Cl)c(Cl)c2)n[nH]1 | inconclusive: 15.8 µM [inhibitor, partial curve] |
| O=C(C1=C(O)C(=O)N(CC2CCCO2)C1c1ccc(Cl)cc1Cl)c1ccco1 (stereo not drawn) | inactive |
| Cc1cc(N2CCCCC2)nc(SCC(=O)c2ccccc2)n1 | inconclusive: 31.6 µM [inhibitor, partial curve] |
| CN1C(=O)/C(=C/c2ccccc2Cl)Sc2ccc(C(=O)N3CCCC3)cc21 | inconclusive: 15.8 µM [inhibitor, partial curve] |
| O=C(CNC(=O)c1ccccc1Cl)N/N=C/c1ccc([N+](=O)[O-])s1 | inconclusive: 11.2 µM [inhibitor, partial curve] |
| CCC(=O)N1CCc2cc(S(=O)(=O)NCCC(=O)Nc3ccc(N(CC)CC)cc3C)ccc21 | inconclusive: 50.1 µM [inhibitor, single point] |
| CC(C)(C)c1ccc(CNc2ccc([N+](=O)[O-])cn2)cc1 | inconclusive: 50.1 µM [inhibitor, single point] |
| O=C1CCCc2c1[nH]c1c(Br)cccc21 | inconclusive: 31.6 µM [inhibitor, partial curve] |
| CN1/C(=C\C(=O)c2cncc(Br)c2)C(C)(C)c2ccccc21 | inactive |
| COc1cc(/C=N/NC(=O)CSc2cc(C)c(Br)cc2C)ccc1O | inconclusive: 31.6 µM [inhibitor, partial curve] |
